Over roughly 33,000 sequences, “E-score (-0.5 to 0.5)” has its median near -0.013; the highest 2% begin near 0.3. The list shows a part of the results.
Each sequence was assayed against T1, Msn1 (UniProt P22148) (assay: PBM E-score (8-mer binding enrichment) (E-score (-0.5 to 0.5)); higher = stronger / more preferred TF binding; most listed sequences are background and not binding sites). Conditions: protein concentration: 200 nM; construct: GST-full length.
T1 sequence: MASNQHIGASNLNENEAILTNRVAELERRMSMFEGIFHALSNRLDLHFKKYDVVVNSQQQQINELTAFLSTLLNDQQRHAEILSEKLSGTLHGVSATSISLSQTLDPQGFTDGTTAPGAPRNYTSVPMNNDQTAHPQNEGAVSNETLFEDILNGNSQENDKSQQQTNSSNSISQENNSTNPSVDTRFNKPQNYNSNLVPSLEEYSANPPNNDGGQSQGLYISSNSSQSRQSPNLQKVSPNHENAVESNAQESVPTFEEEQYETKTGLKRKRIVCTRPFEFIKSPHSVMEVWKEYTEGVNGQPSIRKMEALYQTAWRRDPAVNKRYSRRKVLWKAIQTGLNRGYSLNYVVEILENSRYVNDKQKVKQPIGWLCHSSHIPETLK
Procedure, shortened: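 GST-tagged yeast TFs (full-length or DNA-binding domain) were made by PURExpress in vitro transcription/translation and applied at about 100-200 nM to universal all-10-mer Agilent arrays. The arrays were made double-stranded by primer extension, on fresh or once-stripped slides. Bound protein was detected with fluorescent anti-GST, and scans were normalised with masliner. Each ungapped eight-base word, pooled with its reverse complement, received an E-score (modified Wilcoxon-Mann-Whitney statistic) from the Universal PBM Analysis Suite.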

Question: Which “PBM E-score” value does the source give for AGACGAGG here?
Answer: The value was -0.131.

Question: Which “PBM E-score” value does the source give for AGTAATTA here?
Answer: Its value is 0.119.

Question: CCTCCTTA was tested. Which “PBM E-score” value did it give?
Answer: Its value is -0.265.

Question: TATTCACA was tested. Which “PBM E-score” value did it give?
Answer: Its value is 0.22.

Question: With GCTGGGCC as the sequence, how does the “PBM E-score” value read?
Answer: Its value is -0.248.

Question: How did the “PBM E-score” value turn out when CGGGAATC was run?
Answer: Its value is -0.0131.

Question: CACTCGCG was tested. Which “PBM E-score” value did it give?
Answer: The value was 0.0699.

Question: Which “PBM E-score” value does the source give for CTCGTACA here?
Answer: The value was 0.145.

Question: TAGTTTGA was tested. Which “PBM E-score” value did it give?
Answer: Its value is 0.113.

Question: How did the “PBM E-score” value turn out when CTGGTTAA was run?
Answer: The value was 0.102.

Question: How did the “PBM E-score” value turn out when CCTCTTAG was run?
Answer: Its value is 0.189.

Question: For ATGTGGAA, which “PBM E-score” value is on record?
Answer: Its value is 0.216.

Question: GGAATAAC was tested. Which “PBM E-score” value did it give?
Answer: The value was -0.0369.

Question: With GGCATCGA as the sequence, how does the “PBM E-score” value read?
Answer: The value was -0.157.

Question: With CGGCCCAC as the sequence, how does the “PBM E-score” value read?
Answer: Its value is -0.132.

Question: CCCTCCGC was tested. Which “PBM E-score” value did it give?
Answer: Its value is -0.248.

Question: How did the “PBM E-score” value turn out when AATACACA was run?
Answer: Its value is 0.162.

Question: CAACTGAG was tested. Which “PBM E-score” value did it give?
Answer: Its value is 0.0855.

Question: CGGTCAAC was tested. Which “PBM E-score” value did it give?
Answer: The value was 0.179.

Question: GACAACCA was tested. Which “PBM E-score” value did it give?
Answer: The value was 0.287.

Question: With ACTTCAGA as the sequence, how does the “PBM E-score” value read?
Answer: The value was -0.0132.

Question: With TAGCGCCA as the sequence, how does the “PBM E-score” value read?
Answer: Its value is -0.154.

Question: Which “PBM E-score” value does the source give for AGACGCCG here?
Answer: The value was -0.136.

Question: Which “PBM E-score” value does the source give for GAAGCCGA here?
Answer: The value was -0.119.

Question: With TAGGGATA as the sequence, how does the “PBM E-score” value read?
Answer: The value was -0.0828.

Question: With CTTTGCAA as the sequence, how does the “PBM E-score” value read?
Answer: Its value is 0.0671.

Question: CCTCTCAG was tested. Which “PBM E-score” value did it give?
Answer: Its value is -0.339.

Question: With GACTCCGC as the sequence, how does the “PBM E-score” value read?
Answer: The value was 0.0635.

Question: How did the “PBM E-score” value turn out when GGCGCTAA was run?
Answer: Its value is -0.121.

Question: Which “PBM E-score” value does the source give for AGACGTTG here?
Answer: Its value is -0.194.

Question: With ACCGGAAC as the sequence, how does the “PBM E-score” value read?
Answer: The value was 0.096.

Question: For ACCCGTTG, which “PBM E-score” value is on record?
Answer: Its value is -0.021.

Question: With CAAGCGCC as the sequence, how does the “PBM E-score” value read?
Answer: The value was -0.207.

Question: Which “PBM E-score” value does the source give for CACAGGAC here?
Answer: Its value is 0.202.

Question: With AGGGTTGC as the sequence, how does the “PBM E-score” value read?
Answer: The value was -0.13.

Question: Which “PBM E-score” value does the source give for AGTAGTTC here?
Answer: The value was 0.0583.

Question: For GTCGGGCA, which “PBM E-score” value is on record?
Answer: Its value is -0.193.

Question: ACCTAGAG was tested. Which “PBM E-score” value did it give?
Answer: Its value is -0.162.

Question: For ACTTTAGG, which “PBM E-score” value is on record?
Answer: Its value is 0.0205.

Question: How did the “PBM E-score” value turn out when AAATCGAT was run?
Answer: Its value is 0.154.

Question: CCAGCCAC was tested. Which “PBM E-score” value did it give?
Answer: Its value is 0.00974.

Question: Which “PBM E-score” value does the source give for ATTATTGA here?
Answer: Its value is -0.00666.

Question: For CCCCGTAA, which “PBM E-score” value is on record?
Answer: The value was -0.048.

Question: Which “PBM E-score” value does the source give for GAGCCTAC here?
Answer: The value was -0.174.

Question: ATGAAACG was tested. Which “PBM E-score” value did it give?
Answer: The value was -0.0216.

Question: For AAGAGAGG, which “PBM E-score” value is on record?
Answer: The value was -0.0384.

Question: With GAAAAGTC as the sequence, how does the “PBM E-score” value read?
Answer: Its value is 0.326.

Question: With AGAATGCT as the sequence, how does the “PBM E-score” value read?
Answer: Its value is -0.0514.

Question: With AAATGTTG as the sequence, how does the “PBM E-score” value read?
Answer: The value was -0.0982.

Question: How did the “PBM E-score” value turn out when TACATGGA was run?
Answer: The value was 0.193.

Question: How did the “PBM E-score” value turn out when GTCCGGGA was run?
Answer: The value was 0.336.

Question: How did the “PBM E-score” value turn out when ATAATTCC was run?
Answer: Its value is 0.0966.

Question: Which “PBM E-score” value does the source give for ATCTCACA here?
Answer: The value was -0.218.

Question: CCAATATC was tested. Which “PBM E-score” value did it give?
Answer: Its value is 0.0212.

Question: How did the “PBM E-score” value turn out when ACCTACCC was run?
Answer: Its value is -0.19.

Question: For TAACATTA, which “PBM E-score” value is on record?
Answer: The value was 0.0139.

Question: How did the “PBM E-score” value turn out when AGCAAAGC was run?
Answer: The value was -0.143.

Question: CCTCACGA was tested. Which “PBM E-score” value did it give?
Answer: Its value is -0.264.

Question: How did the “PBM E-score” value turn out when TGCGAAAA was run?
Answer: The value was 0.0788.

Question: For AGTGGCAG, which “PBM E-score” value is on record?
Answer: The value was -0.164.

Question: With ATTATATG as the sequence, how does the “PBM E-score” value read?
Answer: Its value is 0.249.

Question: Which “PBM E-score” value does the source give for GGTTCTCA here?
Answer: The value was 0.0386.

Question: For CACTTCGG, which “PBM E-score” value is on record?
Answer: The value was 0.124.

Question: Which “PBM E-score” value does the source give for CTCAATGA here?
Answer: The value was -0.0628.

Question: How did the “PBM E-score” value turn out when CCCCGTAG was run?
Answer: The value was -0.254.

Question: For CGTGCGAC, which “PBM E-score” value is on record?
Answer: Its value is -0.185.

Question: With TAGGACCA as the sequence, how does the “PBM E-score” value read?
Answer: Its value is 0.202.

Question: Which “PBM E-score” value does the source give for CATCCAAA here?
Answer: The value was -0.0473.

Question: ACCCGGTC was tested. Which “PBM E-score” value did it give?
Answer: Its value is -0.023.

Question: For ACTTATTC, which “PBM E-score” value is on record?
Answer: The value was 0.126.

Question: AAGCTTCG was tested. Which “PBM E-score” value did it give?
Answer: Its value is -0.068.

Question: For CCGGCTTC, which “PBM E-score” value is on record?
Answer: The value was -0.146.

Question: For AAGTTGAT, which “PBM E-score” value is on record?
Answer: Its value is 0.016.

Question: GAGGGTGC was tested. Which “PBM E-score” value did it give?
Answer: Its value is -0.243.

Question: For CATAATCA, which “PBM E-score” value is on record?
Answer: The value was 0.149.

Question: Which “PBM E-score” value does the source give for CCTCTCTC here?
Answer: The value was -0.319.

Question: For AGTGTCTG, which “PBM E-score” value is on record?
Answer: The value was 0.154.

Question: Which “PBM E-score” value does the source give for ACTGATGC here?
Answer: The value was -0.154.

Question: For CGCATGAC, which “PBM E-score” value is on record?
Answer: The value was 0.0618.

Question: For TCGTGCAA, which “PBM E-score” value is on record?
Answer: Its value is 0.157.

Question: Which “PBM E-score” value does the source give for CTGGCCCA here?
Answer: Its value is -0.274.

Question: With AGGTGTCG as the sequence, how does the “PBM E-score” value read?
Answer: The value was -0.011.

Question: Which “PBM E-score” value does the source give for AGCCGCTA here?
Answer: The value was -0.0778.

Question: For CATCAGGA, which “PBM E-score” value is on record?
Answer: The value was 0.258.

Question: With AATCAAGC as the sequence, how does the “PBM E-score” value read?
Answer: Its value is -0.0365.

Question: How did the “PBM E-score” value turn out when AGACACCC was run?
Answer: Its value is -0.165.
